Source: patent US7018999B2, “Methods for the treatment and prevention of pain” (Cephalon, Inc., priority 2001, dated 2006)

System: inflammation of the hind paw produced by formalin
Assay: formalin-induced hind paw inflammation measured with a plethysmometer
Type: in vivo, rat
Settings: pretreatment at doses that inhibit phase II of the formalin behavioral response; FIGS. 10 and 11
Excerpt: (see, for example, FIGS. 10 and 11).

CC(C)Oc1ccc2c(c1)CCc1c-2c2c(c3c4ccccc4n(CCO)c13)CNC2=O [IX]
effect upon the inflammation produced by formalin (paw volume): had no effect

CC(C)Oc1ccc2c(c1)CCc1c-2c2c(c3c1[nH]c1ccc(F)cc13)CNC2=O [VIII]
effect upon the inflammation produced by formalin (paw volume): had no effect
